Laboratory results as given in patent US20100314318A1, “HALOGENATED AMIDE BIOCIDAL COMPOUNDS AND METHODS FOR TREATING WATER SYSTEMS AT NEAR NEUTRAL TO HIGH PH” (priority 2009, published 2010).

Test system: Pseudomonas aeruginosa, Klebsiella pneumoniae, Bacillus subtilis, and Staphylococcus aureus
Assay: Preservation of acrylic polymer emulsion (pH 8.2), plate counts
Settings: for change in bacterial counts (FIG. 2): 0 to 50 ppm
Excerpt: Samples of a generic acrylic polymer emulsion (49.9% [w/v] solids, pH 8.2) are inoculated with approximately equal numbers (ca. 1×10^6 per ml) of cells of Pseudomonas aeruginosa, Klebsiella pneumoniae, Bacillus subtilis, and Staphylococcus aureus. The cell inocula are evenly dispersed in the emulsion samples by vigorous agitation. Samples are then sampled to measure the initial inoculum size. The acrylic polymer emulsions are then amended with selected concentrations of DBMAL (from 2.5 to 500 ppm [or mg/l]). The biocide-treated emulsions are incubated at room temperature (ca. 23° C.) on a rocker platform to provide gentle agitation. Samples for enumerating surviving bacteria are collected after 2, 24, and 48 hr of incubation, serially diluted in phosphate-buffered saline, and plated onto Tryptic Soy Agar (TSA) plates.
After a 48-hr contact time, samples are collected for plate counts.

SMILES | change in bacterial counts (FIG. 2) (48-hr contact time) | bacteria counts (FIG. 1) (2-hr contact time, all but 500 ppm DBMAL) | plate counts (FIG. 1) (24-hr contact time, 2.5 to 500 ppm) | inhibition of test organisms (FIG. 1) (48-hr contact time) | efficacy compared with DBNPA (FIG. 2) (all concentrations tested (0 to 50 ppm), 48-hr contact time)
NC(=O)C(Br)(Br)C(N)=O [DBMAL, 2,2-Dibromomalonamide] | reductions in bacterial counts | relatively unchanged | clear dose-response relationship | continued to inhibit the test organisms during the entire study | more efficacious than DBNPA
N#CC(Br)(Br)C(N)=O [DBNPA, 2,2-Dibromo-3-nitrilopropionamide] | reductions in bacterial counts | – | – | – | –
